Drawing on patent US20140348747A1 (published 2014), this text covers Kd for 12 molecules.

The target in assay [1] is T1, NLpoly 5P (3P + D108N + N144T).
T1 chain: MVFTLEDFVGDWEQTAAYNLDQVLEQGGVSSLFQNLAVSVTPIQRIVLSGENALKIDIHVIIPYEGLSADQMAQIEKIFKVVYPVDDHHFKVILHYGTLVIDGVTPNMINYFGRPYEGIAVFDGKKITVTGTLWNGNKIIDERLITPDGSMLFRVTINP
As to the kind of experiment: luminescence complementation; NanoGlo.

Assay [2] shares this target. As to the kind of experiment: luminescence complementation; PBS.
Assay [3] shares this target. Nature of the assay: luminescence complementation; average HeLa, HEK293, CHO lysates.
For assay [4] the target is unchanged. As to the kind of experiment: luminescence complementation; HeLa lysate.
Assay [5] has the same target. As to the kind of experiment: luminescence complementation.
Assay [6] has the same target. Nature of the assay: luminescence complementation binding; NLpoly 5P expressed in E. coli.
For assay [7] the target is unchanged. Nature of the assay: luminescence complementation; average HeLa, HEK293, CHO lysates.

For orientation: Kd means the equilibrium constant for the complex coming apart. Consider GVTGWRLCERILA [NLpepWT], for which the Kd in assay [1] is 6.04 µM; in assay [2], 321 nM; in assay [3] it was 4200 nM. Regarding Ac-NVSGWRLFKKIS-NH2 [NLpep83], the Kd in assay [4] was 6 nM.

For Ac-VSGWRLFKKISN-NH2 [NLpep80], the Kd in assay [5] amounted to 6.9 nM; in assay [6] it was 5.4 nM. With Ac-NVSGWRLFKKI-NH2 [NLpep84], the Kd in assay [4] was determined as 27 nM. As to Ac-SGWRLFKKISN-NH2 [NLpep81], the results for the Kd in assay [5] and in assay [4] were 116 nM and 101 nM, respectively. On to Ac-SGWRLFKKI-NH2 [NLpep87], for which the Kd in assay [6] came out at 352 nM; in assay [4], 282 nM. For GVTGWRLFKRISA [NLpep53], the Kd in assay [7] was 18 nM. For Ac-GWRLFKKISN-NH2 [NLpep82], the Kd in assay [5] worked out at 97.8 nM; in assay [4], 212 nM. As to Ac-VSGWRLFKKIS-NH2 [NLpep86], the Kd in assay [4] turned out to be 2 nM. Turning to Ac-NVSGWRLFKK-NH2 [NLpep85], in assay [4], the Kd stood at 257 nM. As to GVTGWRLCKRISA [NLpep9], in assay [7], the Kd amounted to 642 nM. As for NVTGYRLFKKISN [NLpep79], the values for the Kd in assay [1], in assay [2] and in assay [3] were 0.307 µM, 10 nM and 64 nM, respectively.
